Several values for one entry are separate records, joined by “and”; a condition that tells them apart may be missing. Equal entries are not always repeated.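 Cultured in 96-well plates, cells were exposed to test compound for 48 hours across five concentrations. GI50 is the concentration that inhibits growth by half. Definition used: TGI = concentration required for complete inhibition of growth.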

This experiment concerns NCI-H322M lung. Description: NCI-60 cell line screen, 48 h.
On to `O=P1(NCCCl)OCCCN1CCCl` (configuration not stated), for which the TGI is 445 µM.

As to `O=C1NN2CC(c3ccccc3)=NN=C2c2ccccc21`, the GI50 is 20.6 µM and the TGI was 56.7 µM.

Turning to `NC(N)=N/N=C/c1c(-c2ccccc2[N+](=O)[O-])nc2sccn12`, the TGI is greater than 100 µM.

`O=C1CSC(c2c[nH]c3ccccc23)N1c1cccc(Cl)c1` (configuration not stated): the TGI is greater than 100 µM.

For `C[N+]1(C)C2CC(OC(=O)C(CO)c3ccccc3)CC1C1OC12` (configuration not stated), the TGI was greater than 100 µM.

Compound `CCN(CC)CC(=O)NC1c2ccccc2Oc2ccccc21` returned a TGI greater than 100 µM.

Turning to `COc1ccc2c(c1)/C(=C/c1c(O)[nH]c(=S)[nH]c1=O)C=N2`, the TGI was greater than 100 µM.

`COc1cccc2c1C(=O)c1c(O)c3c(c(O)c1C2=O)C[C@@](O)(C(=O)CO)CC3OC1CC(N(C)CCOCC(OC(C)=O)OC(C)=O)C(O)C(C)O1` (some centres not stated) yielded a TGI greater than 0.01 µM.

As for `CN1C(=O)C(c2c[nH]c3ccccc23)=C(c2c[nH]c3ccccc23)C1=O`, the GI50 is 9.14 µM and the TGI was greater than 25 µM.

In turn, `C/C(=N/NC(=O)c1ccncc1)C(F)(F)F` came in with a TGI greater than 100 µM.

`CC(=O)OCC1OC(n2c3c(c(-c4ccc(C)cc4)c(C#N)c2=S)C(=O)CC(C)(C)C3)C(OC(C)=O)C(OC(C)=O)C1OC(C)=O` (configuration not stated): the TGI is greater than 100 µM.

In the case of `C=CC(=O)NCCC(=O)OCn1cc(F)c(=O)[nH]c1=O`, the TGI is greater than 100 µM.

As to `CCN1CCN(CCC(=O)Nc2cccc(-n3cc(-c4ccncc4)c(-c4ccc(Cl)c(OC)c4)n3)c2)CC1`, the GI50 was 0.855 µM and the TGI amounted to 4.37 µM.

`NC(Cc1ccc(CP(=O)(O)O)cc1)C(=O)O` (configuration not stated) showed a TGI greater than 100 µM.

`COc1cc2nc3n(c2cc1OC)C(O)c1c(Cl)nc(SC)nc1S3` (configuration not stated) displayed a TGI of 32.4 µM.

The compound `C#CCN(Cc1ccc2nc(-c3ccccc3)c(Cl)nc2c1)c1ccc(F)cc1` gave a TGI greater than 100 µM.

As to `O=C1C=CC2(C=C1)O[C@H](COCc1ccccc1)[C@@H](COCc1ccccc1)O2`, the TGI came out at 31.5 µM.

As for `COC(=O)[C@@H](C)C[C@H](Cc1ccccc1)NC(=O)c1nc([C@@H](C[C@H](C(C)C)N(C)C(=O)[C@@H](NC(=O)[C@H]2C[C@H](O)CCN2C)C(C)C)OC(C)=O)sc1C(C)C`, the GI50 was 0.037 µM and the TGI was greater than 11.1 µM.

Consider `O=C1c2cc(Br)ccc2-c2ccc3c4ccc5c6c(ccc(c7ccc1c2c73)c64)C(=O)c1cc(Br)ccc1-5`, for which the TGI is greater than 100 µM.

Consider `O=S(=O)(NCCCNc1cc(-c2cn(-c3ccccc3)nc2-c2cccc(O)c2)ccn1)c1ccc(C(F)(F)F)cc1`, for which the GI50 is 2.94 µM and the TGI was determined as 9.23 µM.

Regarding `Cc1ccc(NC(=O)c2ccc(CN3CCN(C)CC3)cc2)cc1Nc1nc(-c2cccnc2)cs1`, the GI50 was 14.6 µM and > 10 µM; the TGI is 29.3 µM and > 10 µM.

For `COc1cc2c(c3oc(-c4ccc(O)cc4)c(O)c(=O)c13)CCC(C)(C)O2`, the GI50 is 0.37 µM and the TGI is greater than 100 µM.

As to `Sc1cccc2cccnc12`, the GI50 was 1.49 µM and the TGI is 11.9 µM.

For the compound `CCCN(CCC)C(=S)Sc1nc(C)nc(N2CCN(c3nc(C)nc(SC(=S)N(CCC)CCC)c3[N+](=O)[O-])CC2)c1[N+](=O)[O-]`, the TGI was greater than 95.6 µM.

`C#CCOC(=O)C(N)CC(N)=O` (configuration not stated) displayed a TGI greater than 100 µM.

For the compound `COc1ccc(-c2nc3sc(-c4cc(OC)c(OC)c(OC)c4)nn3c2/C=C2/C(=O)Nc3ccc(F)cc32)cc1`, the GI50 is 2.74 µM and the TGI was determined as 7.99 µM.

Consider `CC1(OCc2ccccc2)C(=O)N2C1NCC2(C)C` (configuration not stated), for which the TGI is greater than 100 µM.

`O=C1C2C3C4C1C1C2[C@H](OCc2ccccc2)C3C1[C@H]4OCc1ccccc1` (some centres not stated): the TGI was greater than 100 µM.

Consider `CC(=O)C1(O)CC2(c3ccccc3)C(=O)C1(c1ccccc1)C(c1ccccc1)=C2c1ccccc1` (configuration not stated), for which the TGI is greater than 100 µM.

Take `COC(=O)c1c2c(c(C)[n+]([O-])c1C)C(=O)C(NCc1ccc(OC)cc1)=CC2=O`: the GI50 was 2.05 µM and the TGI was 6.29 µM.

In turn, `C/C(=N/NC(=O)c1ccccc1S(N)(=O)=O)C(CN1CCCCC1)C(C1=C(O)C2C=CC=CC2OC1=O)c1ccccc1` (configuration not stated) yielded a TGI greater than 100 µM.

On to `CC(C)OC(=O)NCCn1cc(-c2ccccc2)nn1`, for which the TGI was greater than 100 µM.

Consider `Cc1c(Cl)cccc1C(=O)Nc1nc2c(s1)CN(C(=O)Nc1cccc(C(F)(F)F)c1)CC2`, for which the GI50 is 0.315 µM and the TGI was greater than 50 µM.

With `Cc1ccc(-c2n[nH]c(=O)n2/N=C\c2ccccc2O)cc1`, the TGI is greater than 100 µM.

For the compound `O=C([CH-]C(=O)c1ccccc1)c1ccccc1.O=C([CH-]C(=O)c1ccccc1)c1ccccc1.O=C([CH-]C(=O)c1ccccc1)c1ccccc1.[Ga+3]`, the GI50 is greater than 100 µM and the TGI is greater than 100 µM.

As to `COC(=O)/C=C1\SC2(OC1=Nc1ccccc1)C1CC3CC(C1)CC2C3` (configuration not stated), the TGI was greater than 100 µM.

Consider `CC[C@@]1(OP(=O)(O)O)C(=O)OCc2c1cc1n(c2=O)Cc2cc3ccccc3nc2-1`, for which the GI50 is 1.29 µM; the TGI is 5.56 µM and 4.97 µM.

In turn, `Cc1cc(N(CCC#N)CCC#N)ccc1/C=C(\NC(=O)/C=C/c1ccccc1)C(=O)N=[N+]=[N-]` showed a TGI greater than 100 µM.

For `Cc1cn2cc(-c3cccs3)nc2s1`, the TGI is greater than 100 µM.

In the case of `O=[N+]([O-])c1ccc(C2=NCCO2)cc1`, the GI50 was greater than 100 µM and the TGI is greater than 100 µM.

`O=C1Cc2c(-c3cccs3)cc(-c3ccccc3)nc2-c2ccccc2N1` showed a TGI greater than 100 µM.

On to `CN(C)CC1CC/C(=C\c2ccc(Cl)c(Cl)c2)C1=O` (configuration not stated), for which the TGI was greater than 100 µM.

`CC(C)=CCC/C(C)=C/CC/C(C)=C/CSC[C@H](NC(=O)CCCCCN1CCN(C)CC1)C(=O)NC1CCCCCC1`: the GI50 was 2.88 µM and the TGI was 10.1 µM.

With `O=C(O)/C=C/c1ccc(O)c(O)c1`, the TGI is greater than 100 µM.

Take `COC(=O)NC(=O)NC(Cc1ccccc1)NC(=O)OCc1ccccc1` (configuration not stated): the TGI was greater than 100 µM.

For `CC(C)(C)N(Cc1ccccc1)C(=O)/C=C\S(=O)c1ccccc1` (configuration not stated), the TGI was 26.8 µM.

Compound `Clc1ccc(Cc2nc3ccccc3o2)cc1` gave a TGI greater than 100 µM.

With `O=C(O)c1ccc(N(/C=C/C(=O)C(F)(F)F)Cc2ccc(Cl)cc2)cc1`, the GI50 is 32.9 µM and the TGI came to 89.4 µM.

For the compound `CCOC(=O)c1noc2c1CCc1c-2cn(Cc2ccc(OC)cc2)c1-c1cc(OC)c(OC)c(OC)c1`, the GI50 was 5.47 µM and the TGI was greater than 100 µM.

As to `COc1cc2cc(NCc3cccc(Cl)c3)nc(C)c2cc1OC`, the GI50 is 1.42 µM and the TGI was 29.8 µM.

`CC(C)=CCC[C@@H](C)[C@H]1CC[C@@]2(C)[C@@H]3CC[C@H]4C(C)(C)[C@@H](O)CC[C@@]45C[C@@]35CC[C@]12C` gave a TGI greater than 100 µM.

Turning to `COc1ccc(-c2csc3c2-n2cccc2C3=O)cc1`, the GI50 was 0.233 µM.

On to `Cn1cc(-c2ccc3nc(-c4ccc(CC(=O)Nc5cc(C(C)(C)C)no5)cc4)cnc3c2)cn1`, for which the GI50 is 0.0164 µM and the TGI is greater than 3 µM.

In turn, `COC(=O)C(=O)C(C#N)c1nc2ccccc2s1` (configuration not stated) displayed a TGI greater than 100 µM.

Take `COC1=C(C(c2cc(OC)c(OC)c(OC)c2)c2cc3c(cc2OC)OCO3)C(=O)OC1` (configuration not stated): the TGI is greater than 86 µM.

Compound `O=C(CCc1n[nH]c(=S)o1)Nc1cc(Cl)ccc1Cl` displayed a TGI greater than 100 µM.

In the case of `C[C@@H]1CN2[C@H]3[C@@H]1CC[C@]31CCC(=O)O[C@]1(C)[C@H]1CC[C@H]3CCC=C3[C@@H]12`, the GI50 was greater than 30 µM and the TGI was greater than 30 µM.

The values above are taken from PubChem BioAssay (NCI).
